Laboratory results taken from PubChem BioAssay AID588855 (National Center for Advancing Translational Sciences (NCATS), 2011).
Out of some 410,000 compounds screened, about 5,000 (1.2%) were called active. The inconclusive results got no clear call from the source; some entries with a clear call stand among them for comparison. Calls follow the shape of the dose curve; as a rule, active = well fitted inhibition curve with a large enough effect; inconclusive = small, poorly fitted or top-dose-only effect; inactive = no such curve, though single readings can be large or run the other way. Potencies of inconclusive entries are doubtful fits and often do not repeat.

Assay: qHTS for Inhibitors of TGF-b; also: nearly all actives have a fitted effect of over 65% in size
Conditions: HepG2 CAGA-GFP TGF-b/SMAD3 reporter, GFP fluorescence, 18 h, TGF-beta stimulated, 500 pg/mL final; series mostly up to 46.1 µM; activity, negative = inhibition: at the top concentration
Method in brief: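 Using HEPG2 CAGA-GFP reporter cells at 1000 cells/well, we pinned test compounds, stimulated with recombinant TGF-beta (500 pg/mL final) and measured total well GFP after 18 h.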
% is scaled to controls: 0 for no effect and ±100 for the full control effect; potency is read from the fitted curve at half-maximal effect; tags tell the direction and shape of the fitted curve.

| Compound | Potency | activity, negative = inhibition |
| --- | --- | --- |
| Cc1nc(-c2ccc(S(=O)(=O)Nc3ccc(Cl)c(C(F)(F)F)c3)cc2)co1 | inconclusive: 22.4 µM [inhibitor, single point] | – |
| CCCNC(=O)C1(C)CCCN(Cc2ccc(Oc3ccccc3)cc2)C1 (centres undefined) | inconclusive: 11.2 µM [inhibitor, partial curve] | – |
| O=C(/C(=C\c1ccccc1)c1nc2ccccc2[nH]1)c1ccc(Cl)cc1 | inconclusive: 25.1 µM [inhibitor, single point] | – |
| Cc1ccc(NC(=S)N2CCCC(c3nc4ccc(C)cc4[nH]3)C2)c(C)c1 (centres undefined) | inconclusive: 15.8 µM [inhibitor, single point] | – |
| COC(=O)C1=C[C@@H](C(=O)OC)[C@@H]2C3=C(C(=O)C2(C)C)[C@H](C)n2c(=O)n(C)c(=O)n2[C@@H]3C1 | inconclusive: 14.1 µM [inhibitor, single point] | – |
| Cc1cc(OCCN2CCC(Cc3ccccc3)CC2)ccc1[N+](=O)[O-] | inconclusive: 35.5 µM [inhibitor, single point] | – |
| CCC(c1nnnn1C(C)(C)C)N1CCN(C2CCCC2)CC1 (centres undefined) | inconclusive: 6.31 µM [inhibitor, single point] | – |
| O=C(Nc1ccc(Cl)c(Cl)c1)Nc1cc(S(=O)(=O)N2CCOCC2)ccc1N1CCCC1 | inconclusive: 28.2 µM [inhibitor, partial curve, poor fit] | – |
| CC(C)Cc1nc(N2CCN(C(=O)c3ccco3)CC2)c(C#N)c2c1CCC2 | inconclusive: 35.5 µM [inhibitor, single point] | – |
| CCOC(=O)c1c(NC(=O)c2ccco2)sc2c1CCCCC2 | – | inactive: 6.92% |
| CCn1c(=O)c2cc(C(=O)N(C)c3cc(C)ccc3OC)sc2c2ccccc21 | inconclusive: 12.6 µM [inhibitor, partial curve, poor fit] | – |
| CCOc1cccc(CC(=O)N2CCc3c([nH]c4ccccc34)C2c2ccc(SC)cc2)c1OCC (centres undefined) | – | inactive: -1.9% |
| O=C(COc1ccccc1)Nc1ccc(S(=O)(=O)NCc2ccco2)cc1 | – | inactive: -11.9% |
| Cc1nc(NCc2ccco2)c2c3c(sc2n1)CCC3 | inconclusive: 35.5 µM [inhibitor, partial curve, poor fit] | – |
| COc1ccc(-c2nc3c4ccccc4ccn3c2CN2CCOCC2)cc1OC | inconclusive: 10 µM [inhibitor, partial curve] | – |
| CCOC(=O)Nc1cccc(NC(=O)c2ccccc2F)c1 | – | inactive: -10.1% |
| Cc1no[n+]([O-])c1COc1cccc(/C=N/Nc2nncn2N)c1 | inconclusive: 20 µM [inhibitor, single point] | – |
| O=C(NCC(c1ccc(F)cc1)N1CCOCC1)c1ccc([N+](=O)[O-])o1 (centres undefined) | inconclusive: 25.1 µM [inhibitor, single point] | – |
| NC(=O)c1ccc(NC(=O)C2CCCO2)cc1 (centres undefined) | – | inactive: 4.98% |
| Cc1ccc(-c2nc(CCNC(=O)C(=O)Nc3c(C)cccc3C)cs2)cc1 | inconclusive: 0.112 µM [inhibitor, full curve, poor fit] | – |
| Cc1cc(=O)n2nc(N3CCCC(C(=O)NCCc4ccccc4)C3)sc2n1 (centres undefined) | – | inactive: 2.27% |
| COc1cc(-c2c(C#N)c(N)nc3[nH]c(=S)[nH]c(=O)c23)ccc1O | – | inactive: -10.7% |

| Compound | Potency | activity, negative = inhibition |
| --- | --- | --- |
| CC1CCCCN1S(=O)(=O)c1ccc(NC(=O)c2cccs2)cc1 (centres undefined) | inconclusive: 35.5 µM [inhibitor, single point] | – |
| CSc1ccc(CNC(=O)C2CCC(=O)N(CCc3cccc(F)c3)C2)cc1 (centres undefined) | – | inactive: -24.4% |
| COc1cc(NC(=O)CN2Cc3ccccc3C2=O)cc(OC)c1OC | – | inactive: 3.33% |
| Cn1c(=O)c(C(=O)NCCCc2ccccc2)c(O)c2ccccc21 | inconclusive: 35.5 µM [inhibitor, single point] | – |
| COc1ccccc1NC(=O)Cc1csc(NC(=S)Nc2ccccc2)n1 | active: 14.1 µM | – |
| Clc1ccc(-c2noc3ncnc(NC4CCCCC4)c23)cc1 | inconclusive: 20 µM [inhibitor, single point] | – |
| Cc1cccc(OCCNC(=O)c2ccc(Cl)c(S(=O)(=O)NCc3cccnc3)c2)c1 | inconclusive: 22.4 µM [inhibitor, single point] | – |
| COc1ccc(-c2cc3nc(-c4ccccc4)cc(N4CCC(O)CC4)n3n2)cc1 | inconclusive: 35.5 µM [inhibitor, single point] | – |
| CCC(CO)Oc1cc(NCc2ccc(Cl)cc2)c2ncn(C(C)C)c2c1 (centres undefined) | inconclusive: 25.1 µM [inhibitor, single point] | – |
| COc1ccc([C@@H]2CC=C(C(=O)O)[C@H](c3cccc(Cl)c3)N2S(=O)(=O)c2ccccc2C)cc1 | – | inactive: -23.8% |
| C#CCOCCOCCOCCNc1nc(N2CCN(C(=O)CCCCCCCCCCNC(=O)[C@H]([C@@H](C)CC)n3cc(CCCCCN)nn3)CC2)nc(N2CCN(C(=O)CCCCCCCCCCNC(=O)[C@@H]([C@H](C)O)n3cc(C)nn3)CC2)n1 | inconclusive: 20 µM [inhibitor, single point] | – |
| Cc1ccccc1NC(=O)c1cccc(Cn2cc(Br)c([N+](=O)[O-])n2)c1 | – | inactive: 4.47% |
| Cc1ccccc1OCCn1cc(C(=O)c2ccco2)c2ccccc21 | inconclusive: 11.2 µM [inhibitor, single point] | – |
| Cc1ccc(-c2nn3c(=O)cc(CN4CCN(C(=O)Nc5cccc(C(F)(F)F)c5)CC4)nc3s2)cc1 | inconclusive: 3.55 µM [inhibitor, single point] | – |
| CCc1ccc2[nH]c(O)c(N=NC3=NC(=O)CS3)c2c1 | inconclusive: 5.62 µM [inhibitor, single point] | – |
| Cc1ccccc1/C=N/NC(=O)CSc1nc2ccccc2o1 | inconclusive: 14.1 µM [inhibitor, partial curve, poor fit] | – |
| COc1ccc(-c2cc3nc(C)c(CCC(=O)NCCc4ccc(Cl)cc4)c(C)n3n2)c(OC)c1 | – | inactive: -3.3% |
| O=C(CN1C(=O)COc2ccc(S(=O)(=O)N3CCCCCC3)cc21)N1CCN(c2ccc(F)cc2)CC1 | inconclusive: 35.5 µM [inhibitor, single point] | – |
| Cc1ccnc(NC(=O)Cc2c(F)cccc2Cl)c1 | inconclusive: 17.8 µM [inhibitor, single point] | – |
| CC(C)CN1CCC(C(=O)N2CCN(c3ccccc3F)CC2)CC1 | inconclusive: 0.631 µM [inhibitor, full curve] | – |
| Cc1cn(C)c(CC(=O)Nc2cccc(C#N)c2)c1C(=O)O | – | inactive: 0.669% |
| Fc1ccc2[nH]c3c(N4CCSCC4)ncnc3c2c1 | inconclusive: 7.94 µM [inhibitor, partial curve] | – |

| Compound | Potency | activity, negative = inhibition |
| --- | --- | --- |
| CCOC(=O)c1sc(NC(=O)c2cc3ccccc3o2)nc1C | – | inactive: 7.59% |
| CCOC(=O)N1CCC(NC(=O)c2cnn(-c3ccc(OC)cc3)c2C2CCN(C(=O)OC(C)(C)C)CC2)CC1 | inconclusive: 20 µM [inhibitor, single point] | – |
| NS(=O)(=O)c1ccc(CCNC(=O)c2cnccn2)cc1 | – | inactive: 2.13% |
| CNC[C@H](CC1CCCCC1)NC[C@H](CO)NCCc1cccc(C(F)(F)F)c1 | inconclusive: 35.5 µM [inhibitor, single point] | – |
| COc1ccc2c(c1)c1c(c(=O)n(-c3ccc(OC)c(OC)c3)c(=O)n1Cc1ccc(F)cc1)n2C | inconclusive: 0.631 µM [inhibitor, partial curve, poor fit] | – |
| CCOC(=O)C1CCCN(c2c(C(=O)c3ccccc3)cnc3ccc(F)cc23)C1 (centres undefined) | inconclusive: 0.1 µM [inhibitor, full curve, poor fit] | – |
| Cc1ccccc1CS(=O)(=O)Cc1ccc(C(=O)NCCc2ccc(Cl)cc2)o1 | active: 14.1 µM | – |
| COC(=O)c1c(-c2ccc(OC)cc2)sc2cc3c(cc12)OCO3 | inconclusive: 15.8 µM [inhibitor, single point] | – |
| COC(=O)c1sc(-c2ccccc2)cc1NC(C)=O | – | inactive: -10.8% |
| C=CCOC(=O)C1=C[C@H](C2CCCCC2)[C@@H](CCCO)[C@H](OCC)O1 | inconclusive: 12.6 µM [inhibitor, single point] | – |
| Nc1nonc1-n1nnc(C(=O)N/N=C/c2ccccc2Cl)c1COc1ccc(F)cc1 | inconclusive: 35.5 µM [inhibitor, single point] | – |
| CCOc1ccc(-n2c(SCc3nc(-c4ccc(C)cc4)no3)nnc2-c2ccncc2)cc1 | inconclusive: 35.5 µM [inhibitor, single point] | – |
| Cc1cccc(C)c1-n1nnnc1C(c1ccccc1)N1CCN(C/C=C/c2ccccc2)CC1 (centres undefined) | inconclusive: 14.1 µM [inhibitor, single point] | – |
| C[C@H](CO)N1C[C@H](C)[C@@H](CN(C)C(=O)Nc2ccc(C(F)(F)F)cc2)Oc2ccc(NC(=O)Nc3ccccc3)cc2C1=O | inconclusive: 11.2 µM [inhibitor, single point] | – |
| Cc1ccc(C)c(N2CCN(C(=O)CCc3nc(-c4ccc(Br)cc4)no3)CC2)c1 | inconclusive: 15.8 µM [inhibitor, single point] | – |
| CCN(CC)c1ccc(/C=N/n2c(-c3ccccc3Br)n[nH]c2=S)cc1 | inconclusive: 20 µM [inhibitor, single point] | – |
| CCN(CC(=O)Nc1c(F)cccc1F)C(=O)c1ccc(N2CCCCC2)c([N+](=O)[O-])c1 | inconclusive: 35.5 µM [inhibitor, single point] | – |
| N/C(=N\OC(=O)c1ccc(Br)o1)c1cccnc1 | inconclusive: 35.5 µM [inhibitor, single point] | – |
| COC(=O)c1ccc(CSc2nnc(CNC(=O)COc3ccc(Cl)cc3)o2)o1 | – | inactive: -13.1% |
| Cc1c(C(=O)N2CCN(C(c3ccccc3)c3ccccc3)CC2)oc2ccccc12 | inconclusive: 35.5 µM [inhibitor, single point] | – |
